Assay results published in publication PMC8682764 (Nucleic Acids Research, 2021).

What was measured:
[1] = biological target: WDR5, 6x N-terminal histidine fusion (pETDuet-1-WDR5) (UniProt P61964); assay: pull-down
[2] = biological target: RbBP5, 6x N-terminal histidine fusion (pETDuet-1-RBBP5) (UniProt Q15291); assay: pull-down

binding result [1]: binds
binding result [2]: binds
B1: GST-MLL1-SET (domain or fragment)
chain: not shown
